# The campaign covered roughly 310,000 compounds. About 14,000 (4.5%) showed an effect of 50% or more. Effects have a minus sign here. Some of the results follow.
# Target: human ether-à-go-go-related gene (hERG) potassium channel (human, UniProt Q12809)
# Assay: primary screen, population patch clamp on CHO cells stably expressing hERG
# 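Also: peak tail current of the secondary pulse compared with the same well before compound.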
# Sequence of human ether-à-go-go-related gene (hERG) potassium channel (Q12809 whole entry, looked up): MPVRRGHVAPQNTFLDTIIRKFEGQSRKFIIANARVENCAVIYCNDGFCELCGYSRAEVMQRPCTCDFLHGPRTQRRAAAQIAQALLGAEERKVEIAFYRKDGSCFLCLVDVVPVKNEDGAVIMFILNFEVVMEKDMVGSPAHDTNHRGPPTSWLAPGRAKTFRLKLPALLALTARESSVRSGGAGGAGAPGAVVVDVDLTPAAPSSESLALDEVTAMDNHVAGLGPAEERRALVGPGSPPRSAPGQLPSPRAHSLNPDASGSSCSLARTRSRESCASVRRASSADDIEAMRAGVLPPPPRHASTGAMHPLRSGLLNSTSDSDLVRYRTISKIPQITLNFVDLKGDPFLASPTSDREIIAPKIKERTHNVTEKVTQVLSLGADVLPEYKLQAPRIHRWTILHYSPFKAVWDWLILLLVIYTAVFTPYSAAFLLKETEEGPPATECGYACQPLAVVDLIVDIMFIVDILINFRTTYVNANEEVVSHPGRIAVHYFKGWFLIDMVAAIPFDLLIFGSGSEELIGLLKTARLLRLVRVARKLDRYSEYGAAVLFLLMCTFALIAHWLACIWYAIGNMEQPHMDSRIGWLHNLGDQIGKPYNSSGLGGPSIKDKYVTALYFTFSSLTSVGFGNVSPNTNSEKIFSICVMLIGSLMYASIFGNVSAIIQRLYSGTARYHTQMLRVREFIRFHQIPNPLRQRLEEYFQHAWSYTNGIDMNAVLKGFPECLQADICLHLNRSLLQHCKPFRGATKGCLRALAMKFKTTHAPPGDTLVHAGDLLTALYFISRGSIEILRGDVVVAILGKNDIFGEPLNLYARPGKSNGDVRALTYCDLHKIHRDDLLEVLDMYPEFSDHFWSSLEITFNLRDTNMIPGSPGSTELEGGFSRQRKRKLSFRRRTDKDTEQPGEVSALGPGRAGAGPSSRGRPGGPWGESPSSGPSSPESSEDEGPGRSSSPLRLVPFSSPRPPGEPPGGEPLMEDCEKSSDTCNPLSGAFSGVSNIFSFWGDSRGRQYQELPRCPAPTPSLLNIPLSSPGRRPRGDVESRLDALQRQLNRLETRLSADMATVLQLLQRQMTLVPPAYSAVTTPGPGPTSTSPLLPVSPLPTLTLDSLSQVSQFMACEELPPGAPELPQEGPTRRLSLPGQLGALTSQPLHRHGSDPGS
row,Structure (SMILES),"hERG current change (%, negative = inhibition) at 10uM [%]"
1,COc1ccc(C)cc1NC(=O)CSc1nnc(-c2ccco2)n1N,-9.67
2,O=S(=O)(c1ccc(N2CCOCC2)c(Cl)c1)N1CCOCC1,15.5
3,CC(C)CSc1nc2c(=O)[nH][nH]c(=O)c2n1Cc1ccccc1,7.56
4,COC(=O)n1c(=O)oc2cc(S(=O)(=O)N3CCOCC3)ccc21,-4.41
5,CN(C(=O)COC(=O)c1cc(S(=O)(=O)N2CCCCC2)ccc1N1CCOCC1)C1CCS(=O)(=O)C1 (stereo not shown),-6.63
6,Nc1no[n+]([O-])c1-c1ccccc1,28.3
7,CN(C)c1ccc(NC(=O)c2cccc(N3C(=O)CCC3=O)c2)cc1,-3.12
8,CC1=NN(c2ccccc2)C(=O)C1N=Nc1ccc(N)cc1 (stereo not shown),5.15
9,O=C(c1c[nH]cc1-c1ccccc1)c1cccc2ccccc12,-14.4
10,O=C(Nc1ccccc1F)C1CCCN1S(=O)(=O)c1ccc(Cl)cc1 (stereo not shown),-8.22
11,COc1ccc(C2CC(c3cccc(OC)c3OC)n3nnnc3N2)cc1 (stereo not shown),-33.9
12,Cc1nc(C(=O)N/N=C/c2[nH]ncc2Br)cs1,10.2
13,CCC(C)c1ccccc1OCCn1ccnc1.O=C(O)C(=O)O (stereo not shown),-7.12
14,CCN(CC)S(=O)(=O)c1cc(C(=O)Nc2ccccn2)ccc1C,-12.6
15,O=C(CN1CCOCC1)NN1CC(=O)N(c2ccc(Cl)cc2)CC1=O,5.81
16,Cc1ccc(NC(=O)C2(NC(=O)c3ccccn3)CCCCC2)cc1Br,6.26
17,Cc1ccc(C(=O)C(C)N(C(=O)c2ccc(Cl)cc2Cl)N2C(=O)CCCC2=O)cc1 (stereo not shown),-5.64
18,COc1cc(NC(=O)Cn2cnc(S(=O)(=O)N3CCCCC3)c2)cc(OC)c1OC,14.9
19,CCC(Sc1nc2n[nH]c(C)c2c(=N)n1-c1ccc(C)c(Cl)c1)C(=O)N1CCOCC1 (stereo not shown),-4.36
20,O=C1NC(CCc2ccccc2)C(=O)N1Cc1cccc2ccccc12 (stereo not shown),13.6

row,Structure (SMILES),"hERG current change (%, negative = inhibition) at 10uM [%]"
1,Cc1nc2ccc(P(=O)(O)O)cc2s1,16.2
2,O=C(CNC(=O)N1CC(=O)Nc2ccccc21)Nc1cccc(F)c1,12.5
3,COc1cc(O)ccc1C=O,-5.93
4,Cc1cccc(C)c1NC(=O)N1CCC(N2CCCCC2)CC1,5.49
5,COc1ccc2c3c([nH]c2c1)C(C)N(C(C)=O)CC3 (stereo not shown),7.88
6,O=C1CN(S(=O)(=O)c2ccc(Br)cc2)c2ccccc2N1,-6.63
7,CCOc1ccc(NC(=O)c2cccc(NC3=NC4CS(=O)(=O)CC4S3)c2)cc1 (stereo not shown),24.2
8,CC(C)CCNC(=O)COc1ccc2c(c1)C(=O)CC(C)(C)O2,6.94
9,CC(=O)N1N=C(c2c(-c3ccccc3)c3cc(C)ccc3[nH]c2=O)CC1c1ccco1 (stereo not shown),-18
10,CCOc1ccccc1Nc1cc2n(c(=O)n1)CCc1cc(OC)c(OC)cc1-2,-6.03
11,O=C(CSc1nnc2ccccn12)Nc1ccc2c(c1)OCCO2,7.4
12,C/C=N/NC(=O)c1cc(Br)ccc1O,4.19
13,CN1CCN(c2ccc([N+](=O)[O-])c(-n3nc(-c4ccccc4)c4ccccc4c3=O)c2)CC1,-19.5
14,COc1ccc(C(OCC(O)CN(C)C2CCCCC2)c2ccc(OC)cc2)cc1 (stereo not shown),-69.8
15,Nc1ccccc1-c1nnc(-c2ccccc2N)n1N,8.38
16,COc1cc2c(cc1OC)CN(C(=O)c1ccc(S(=O)(=O)N3CCCCC3)cc1)CC2,-16.5
17,COc1cccc(CC2(CO)CCCN(Cc3cn(C)c4ccccc34)C2)c1 (stereo not shown),-77.9
18,CCOC(=O)c1c(NC(=O)c2ccoc2C)sc(C)c1C,12
19,CC(C)C(C(=O)NCc1ccco1)N(C(=O)CNS(=O)(=O)c1ccccc1)c1ccccc1 (stereo not shown),2.8
20,COc1cc(OC)c(OC)cc1/C=N/N(C)c1ccccc1,17

row,Structure (SMILES),"hERG current change (%, negative = inhibition) at 10uM [%]"
1,CC(=O)c1ccc(OCCCC(=O)N2CCN(S(=O)(=O)c3ccc(C)cc3C)CC2)cc1,-40.8
2,COc1ccc(CCC(=O)Nc2ccc(Br)cn2)cc1,-0.761
3,N/C(=N\OC(=O)c1ccc([N+](=O)[O-])cc1)c1ccccn1,1.34
4,COCCNC(=O)c1oc2ccc3c(c2c1C)C(O)CC(C)(C)O3 (stereo not shown),14.5
5,CCN(CC)CCNC(=O)NC(=O)c1ccc(Cl)cc1,-63
6,CC1(C)Cc2c(cnn2-c2ccccc2)-c2c1c1ccccc1n2CC(O)CBr (stereo not shown),8.52
7,O=C(CSc1ccccc1)NCc1ccccn1,7.44
8,Cc1ccc(C)c(S(=O)(=O)N2CCN(Cc3ccc(O)c4ncccc34)CC2)c1,8.36
9,Cc1nn(C)cc1CNC(=O)c1cccc(F)c1,0.748
10,COC(=O)N[C@H](CC(C)=O)c1cccc(C(F)(F)F)c1,19.5
11,CC(C)CNC(=S)NC(=O)c1ccccc1Cl,-0.864
12,CCOC(=O)C1(CCOc2ccccc2)CCN(Cc2cc(OC)c(O)c(OC)c2)CC1,-77.6
13,CN(CC(=O)NC(=O)NCc1ccccc1)Cc1ccc(Cl)cc1,-22.6
14,Cc1nc(N2CCCCC2)sc1C(=O)c1ccc(Cl)c([N+](=O)[O-])c1,7.93
15,O=C(CCSc1ccccc1)NNC(=O)c1ccccc1F,18.5
16,COc1ccc(S(=O)(=O)N2CCCC2)cc1NC(=O)c1ccccc1F,25.9
17,Cn1c(CO)cnc1SCc1c(Cl)cccc1Cl,3.01
18,CSC[C@@H]1NC(=S)N(c2ccc(C)cc2)C1=O,15.6

# From PMC4336329 (PLoS ONE, 2015)
